# Measurements taken from article PMC9911399, “Two distinct binding modes provide the RNA-binding protein RbFox with extraordinary sequence specificity”.
# Residue numbers refer to the chain shown, from its start. The list shows a part of the results.
# T1: RBFOX1 RRM RbFoxmut (Fox-RRM*) (Homo sapiens, UniProt Q9NWB1 109-208, R118D;E147R;N151S;E152T)
# T1 sequence: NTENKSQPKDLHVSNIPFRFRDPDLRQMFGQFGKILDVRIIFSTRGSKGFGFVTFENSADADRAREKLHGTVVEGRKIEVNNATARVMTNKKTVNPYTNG
# B1: AGUCGGC (DNA:RNA)
# RNA: GGGAGACCGGAAUUCAGAUUGUCCAGUCGGCUUAAAUCCCGUCGUAGCCACCA
# DNA 1: CAATCTGAATTCCGGTCTCCC
# DNA 2: TGGTGGCTACGACGGGATT
# B2: GAAUAAC (DNA:RNA)
# RNA: B1 RNA with A25G, G26A, U27A, C28U, G29A, G30A
# DNA 1: CAATCTGAATTCCGGTCTCCC
# DNA 2: TGGTGGCTACGACGGGATT
# B3: GUUGAGU (DNA:RNA)
# RNA: B1 RNA with A25G, G26U, C28G, G29A, C31U
# DNA 1: CAATCTGAATTCCGGTCTCCC
# DNA 2: TGGTGGCTACGACGGGATT
# B4: AAGGGGU (DNA:RNA)
# RNA: B1 RNA with G26A, U27G, C28G, C31U
# DNA 1: CAATCTGAATTCCGGTCTCCC
# DNA 2: TGGTGGCTACGACGGGATT
# B5: AUUGUUC (DNA:RNA)
# RNA: B1 RNA with G26U, C28G, G29U, G30U
# DNA 1: CAATCTGAATTCCGGTCTCCC
# DNA 2: TGGTGGCTACGACGGGATT
# B6: GUUCGUU (DNA:RNA)
# RNA: B1 RNA with A25G, G26U, G30U, C31U
# DNA 1: CAATCTGAATTCCGGTCTCCC
# DNA 2: TGGTGGCTACGACGGGATT
# B7: ACUUCUU (DNA:RNA)
# RNA: B1 RNA with G26C, C28U, G29C, G30U, C31U
# DNA 1: CAATCTGAATTCCGGTCTCCC
# DNA 2: TGGTGGCTACGACGGGATT
# B8: GACGUUC (DNA:RNA)
# RNA: B1 RNA with A25G, G26A, U27C, C28G, G29U, G30U
# DNA 1: CAATCTGAATTCCGGTCTCCC
# DNA 2: TGGTGGCTACGACGGGATT
# B9: CCUUGGC (DNA:RNA)
# RNA: B1 RNA with A25C, G26C, C28U
# DNA 1: CAATCTGAATTCCGGTCTCCC
# DNA 2: TGGTGGCTACGACGGGATT
# B10: AAUUACC (DNA:RNA)
# RNA: B1 RNA with G26A, C28U, G29A, G30C
# DNA 1: CAATCTGAATTCCGGTCTCCC
# DNA 2: TGGTGGCTACGACGGGATT
# B11: CGCGUCC (DNA:RNA)
# RNA: B1 RNA with A25C, U27C, C28G, G29U, G30C
# DNA 1: CAATCTGAATTCCGGTCTCCC
# DNA 2: TGGTGGCTACGACGGGATT
# B12: UCUUACC (DNA:RNA)
# RNA: B1 RNA with A25U, G26C, C28U, G29A, G30C
# DNA 1: CAATCTGAATTCCGGTCTCCC
# DNA 2: TGGTGGCTACGACGGGATT
# B13: AGUCAGG (DNA:RNA)
# RNA: B1 RNA with G29A, C31G
# DNA 1: CAATCTGAATTCCGGTCTCCC
# DNA 2: TGGTGGCTACGACGGGATT
# B14: GAACGUC (DNA:RNA)
# RNA: B1 RNA with A25G, G26A, U27A, G30U
# DNA 1: CAATCTGAATTCCGGTCTCCC
# DNA 2: TGGTGGCTACGACGGGATT
# B15: CGCGAGC (DNA:RNA)
# RNA: B1 RNA with A25C, U27C, C28G, G29A
# DNA 1: CAATCTGAATTCCGGTCTCCC
# DNA 2: TGGTGGCTACGACGGGATT
# B16: AGACCGG (DNA:RNA)
# RNA: B1 RNA with U27A, G29C, C31G
# DNA 1: CAATCTGAATTCCGGTCTCCC
# DNA 2: TGGTGGCTACGACGGGATT
# B17: GUCUGGG (DNA:RNA)
# RNA: B1 RNA with A25G, G26U, U27C, C28U, C31G
# DNA 1: CAATCTGAATTCCGGTCTCCC
# DNA 2: TGGTGGCTACGACGGGATT
# B18: CUACACA (DNA:RNA)
# RNA: B1 RNA with A25C, G26U, U27A, G29A, G30C, C31A
# DNA 1: CAATCTGAATTCCGGTCTCCC
# DNA 2: TGGTGGCTACGACGGGATT
# B19: GAGCCGC (DNA:RNA)
# RNA: B1 RNA with A25G, G26A, U27G, G29C
# DNA 1: CAATCTGAATTCCGGTCTCCC
# DNA 2: TGGTGGCTACGACGGGATT
# B20: CAUCAUA (DNA:RNA)
# RNA: B1 RNA with A25C, G26A, G29A, G30U, C31A
# DNA 1: CAATCTGAATTCCGGTCTCCC
# DNA 2: TGGTGGCTACGACGGGATT
# B21: CCCACUG (DNA:RNA)
# RNA: GGGAGACCGGAAUUCAGAUUGUCCCCCACUGUUAAAUCCCGUCGUAGCCACCA
# DNA 1: CAATCTGAATTCCGGTCTCCC
# DNA 2: TGGTGGCTACGACGGGATT
# B22: GUCAAGC (DNA:RNA)
# RNA: B1 RNA with A25G, G26U, U27C, C28A, G29A
# DNA 1: CAATCTGAATTCCGGTCTCCC
# DNA 2: TGGTGGCTACGACGGGATT
# B23: GCCUCUC (DNA:RNA)
# RNA: B21 RNA with C25G, A28U, G31C
# DNA 1: CAATCTGAATTCCGGTCTCCC
# DNA 2: TGGTGGCTACGACGGGATT
# B24: CGCUAGA (DNA:RNA)
# RNA: B1 RNA with A25C, U27C, C28U, G29A, C31A
# DNA 1: CAATCTGAATTCCGGTCTCCC
# DNA 2: TGGTGGCTACGACGGGATT
# B25: CAAAUUA (DNA:RNA)
# RNA: B21 RNA with C26A, C27A, C29U, G31A
# DNA 1: CAATCTGAATTCCGGTCTCCC
# DNA 2: TGGTGGCTACGACGGGATT
# B26: UUUUUAC (DNA:RNA)
# RNA: B1 RNA with A25U, G26U, C28U, G29U, G30A
# DNA 1: CAATCTGAATTCCGGTCTCCC
# DNA 2: TGGTGGCTACGACGGGATT
# B27: GUUACUA (DNA:RNA)
# RNA: B21 RNA with C25G, C26U, C27U, G31A
# DNA 1: CAATCTGAATTCCGGTCTCCC
# DNA 2: TGGTGGCTACGACGGGATT
# B28: AAGGCUC (DNA:RNA)
# RNA: B1 RNA with G26A, U27G, C28G, G29C, G30U
# DNA 1: CAATCTGAATTCCGGTCTCCC
# DNA 2: TGGTGGCTACGACGGGATT
# B29: UUGCGGG (DNA:RNA)
# RNA: B1 RNA with A25U, G26U, U27G, C31G
# DNA 1: CAATCTGAATTCCGGTCTCCC
# DNA 2: TGGTGGCTACGACGGGATT
# B30: ACGCAGA (DNA:RNA)
# RNA: B1 RNA with G26C, U27G, G29A, C31A
# DNA 1: CAATCTGAATTCCGGTCTCCC
# DNA 2: TGGTGGCTACGACGGGATT
# B31: CAAGUGG (DNA:RNA)
# RNA: B21 RNA with C26A, C27A, A28G, C29U, U30G
# DNA 1: CAATCTGAATTCCGGTCTCCC
# DNA 2: TGGTGGCTACGACGGGATT
# Target: T1, RBFOX1 RRM RbFoxmut (Fox-RRM*)
# Experiment: EMSA; HiTS-Eq, 1 nM pool, 10 min; buffer printed only for the single-RNA assays: 10 mM Tris pH 7.5, 150 mM NaCl, 3.4 mM EDTA, 0.001% NP-40, 30 C
# Details: tags: His6 N-terminal (pET28a); label: 5' 32P
# Outline: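 A pool of RNA with 7 randomized nucleotides, 5′-radiolabelled and with DNA-annealed flanks, was equilibrated at 1 nM for 10 min in 50 µL with purified RbFox RRM, wild type or mutant, across increasing protein concentrations. Free RNA was separated by 8% native PAGE, excised, reverse-transcribed, barcoded by PCR and sequenced. Relative association constants were obtained from read-count changes of each RNA species versus the control reaction and normalised to the cognate motif.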
row,Binder,binding signal
1,B1,0.0981 KA relative to UGCAUGU
2,B2,0.126 KA relative to UGCAUGU
3,B3,0.151 KA relative to UGCAUGU
4,B4,0.0988 KA relative to UGCAUGU
5,B5,0.0975 KA relative to UGCAUGU
6,B6,0.131 KA relative to UGCAUGU
7,B7,0.0822 KA relative to UGCAUGU
8,B8,0.0691 KA relative to UGCAUGU
9,B9,0.109 KA relative to UGCAUGU
10,B10,0.102 KA relative to UGCAUGU
11,B11,0.0717 KA relative to UGCAUGU
12,B12,0.1 KA relative to UGCAUGU
13,B13,0.105 KA relative to UGCAUGU
14,B14,0.102 KA relative to UGCAUGU
15,B15,0.109 KA relative to UGCAUGU
16,B16,0.071 KA relative to UGCAUGU

row,Binder,binding signal
1,B17,0.0777 KA relative to UGCAUGU
2,B18,0.111 KA relative to UGCAUGU
3,B19,0.115 KA relative to UGCAUGU
4,B20,0.141 KA relative to UGCAUGU
5,B21,0.103 KA relative to UGCAUGU
6,B22,0.0714 KA relative to UGCAUGU
7,B23,0.0396 KA relative to UGCAUGU
8,B24,0.133 KA relative to UGCAUGU
9,B25,0.098 KA relative to UGCAUGU
10,B26,0.112 KA relative to UGCAUGU
11,B27,0.123 KA relative to UGCAUGU
12,B28,0.0498 KA relative to UGCAUGU
13,B29,0.103 KA relative to UGCAUGU
14,B30,0.106 KA relative to UGCAUGU
15,B31,0.0554 KA relative to UGCAUGU
